Assay results from PubChem BioAssay AID624417 (National Center for Advancing Translational Sciences (NCATS), 2012).
Hit rate of the full screen: of about 410,000 compounds, about 6,400 (1.6%) were called active. The inconclusive results got no clear call from the source; some entries with a clear call stand among them for comparison. Calls come from the whole dose curve; as a rule, active = well fitted inhibition curve with a large enough effect; inconclusive = small, poorly fitted or top-dose-only effect; inactive = no such curve, though single readings can be large or run the other way. Potencies beside an inconclusive call are fits to weak or partial responses and may not hold up.

Biological target: Glucagon-like peptide 1 receptor (Homo sapiens) (UniProt P43220)
Experiment: qHTS of GLP-1 Receptor Inverse Agonists (Inhibition Mode); note: nearly all actives have a fitted effect of over 55% in size
Details: HEK293 GLP-1R CRE-luciferase, luminescence, 24 h, GLP-1R form is constitutively active; activity change, negative = inhibition: at 38.3 µM (top of the series) unless noted
How it was run: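 Constitutively active GLP-1R drives a cAMP-responsive luciferase in stably transfected HEK293 cells; test compounds are added after overnight (12 h) attachment and left 24 hr, and signal loss in luminescence marks inhibition.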
% is set by controls: 0 for no effect and ±100 for the full control effect; potency is the fitted concentration of half-maximal effect; tags give direction and shape of the fitted curve.

UniProt P43220, sequence (P43220 whole entry, looked up): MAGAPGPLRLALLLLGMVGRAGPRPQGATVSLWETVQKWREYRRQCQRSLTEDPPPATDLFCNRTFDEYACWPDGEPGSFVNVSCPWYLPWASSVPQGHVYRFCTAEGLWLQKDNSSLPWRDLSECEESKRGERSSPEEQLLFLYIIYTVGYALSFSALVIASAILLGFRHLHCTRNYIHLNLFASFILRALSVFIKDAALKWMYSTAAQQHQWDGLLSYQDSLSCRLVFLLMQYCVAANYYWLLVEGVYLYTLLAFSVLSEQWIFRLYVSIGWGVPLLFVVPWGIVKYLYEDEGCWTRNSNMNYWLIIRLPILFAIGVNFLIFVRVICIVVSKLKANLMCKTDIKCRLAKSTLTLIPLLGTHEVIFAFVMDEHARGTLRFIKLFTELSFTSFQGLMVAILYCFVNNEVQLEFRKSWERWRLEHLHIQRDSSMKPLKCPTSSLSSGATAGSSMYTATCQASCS

Activity change, negative = inhibition, inconclusive:
CNc1nc(-c2c(C)n(C)c3ccc(OC)cc23)cs1 -40.6% [inhibitor]

Activity change, negative = inhibition, inactive:
CCCOc1ccc(Cc2nn3c(=O)/c(=C/c4ccco4)sc3nc2=O)cc1 0%
CCCNC(=O)C1(C)CCN1C(=O)c1ccccc1CCc1ccccc1 (centres undefined) -5.13%
COc1ccc(-c2nc3c(C)cc(Br)cn3c2CC(C)(C)C)cc1OC -7.14%
O=C(CSc1ncc2c(n1)-c1cc(Cl)ccc1N(Cc1ccccc1F)S2(=O)=O)Nc1cccc(C(F)(F)F)c1 0.635%
COC(=O)c1cc(NC(=O)c2ccc3c(c2)N(Cc2cccc(Cl)c2)C(=O)c2ccccc2S3=O)cc(C(=O)OC)c1 (centres undefined) 18%
CC(=O)c1cccc(NC(=O)c2c(C)nn(-c3ccc(F)cc3)c2-n2cccc2)c1 -14%
N#Cc1nc(-c2ccc(OCc3ccc(Cl)cc3)cc2)oc1N1CCC(C(N)=O)CC1 0.308%
CCOC(=O)c1ccc(NC(=O)CSc2nccn2Cc2ccc(OC)cc2)cc1 -1.38%
O=C(c1cc(F)ccc1F)C1CCCN(Cc2cccn2-c2ccccn2)C1 (centres undefined) -26.7%
CN(Cc1nccn1C)C(=O)c1ccc(OC2CCN(CCc3ccccc3)CC2)cc1 -27.3%
COc1cccc(CNc2nc3c(-c4cccc(C)c4)nnn3c3ccccc23)c1 5.86%
CCOc1ccc(-c2nnc(SCC(=O)NCCc3ccccc3)nc2-c2ccc(OCC)cc2)cc1 -3.56%
CCOc1ccccc1NC(=O)c1ccc2c(Cl)c3c(nc2c1)CCCC3 -3.77%
CS(=O)(=O)N1CCN(C2C3CC4CC(C3)CC2C4)CC1 (centres undefined) 17.5%
O=C(NC(=S)Nc1nc2c(s1)CCCC2)c1ccc(C(=O)c2ccccc2)cc1 20.3%

Potency, active:
CC[n+]1c(/C=C/c2c[nH]c3ccccc23)ccc2cc(C)ccc21 10 µM
CCO[C@@H]1OC(C(=O)N2CCN(Cc3ccc4c(c3)OCO4)CC2)=C[C@H](C2CCCCC2)[C@H]1CCCO 11.2 µM

Potency, inconclusive:
COCc1cc(C)nc(OCC(=O)N/N=C/c2cc(C)n(-c3c(C)cccc3C)c2C)c1C#N 1 µM [inhibitor, full curve, poor fit]
CCOC(=O)Cc1nnc(Nc2cccc(C)c2)c2ccccc12 7.94 µM [inhibitor, partial curve, poor fit]
O=S(=O)(c1ccc(-c2cnc(C3CC3)o2)cc1)N1CCN(c2cccc(Cl)c2)CC1 6.31 µM [inhibitor, full curve, poor fit]
CCOC(=O)[C@]12CCC=C1N(Cc1ccc(Cl)cc1Cl)C(=O)[C@H](CC(=O)NCc1ccccc1)C2 10 µM [inhibitor, partial curve]
CCC(CO)NCc1ccc(OCC(=O)Nc2cccc(C(F)(F)F)c2)c(OC)c1 (centres undefined) 28.2 µM [inhibitor, partial curve, poor fit]
COC(=O)[C@]1(Cc2ccccc2)N[C@H](c2ccc(-c3ccc(F)cc3)cc2)[C@@H]2C(=O)N(C)C(=O)[C@@H]21 28.2 µM [inhibitor, single point]
C=CCNC(=S)NNc1nc2c(c(=O)[nH]1)C1(CCCC1)Cc1ccccc1-2 28.2 µM [inhibitor, single point]
CN(Cc1c(C(=O)N/N=C/c2ccc(O)cc2)nnn1-c1nonc1N)C1CCCCC1 10 µM [inhibitor, partial curve]
Cc1cccc(CNC(=O)c2sc3ncnc(N(C)C4CCCCC4)c3c2C)c1 28.2 µM [inhibitor, single point]
Cc1cc(Cl)ccc1OCC(=O)N(Cc1ccc(N(C)C)cc1)CC1CCCO1 (centres undefined) 25.1 µM [inhibitor, single point]
Cc1nn(-c2ccccc2)c(Cl)c1/C=N/NC(=O)c1ccc(CNc2ccccc2)o1 14.1 µM [inhibitor, single point]
CC(=NNC(=O)c1ccncc1)c1ccc(O)cc1O 0.891 µM [inhibitor, full curve, poor fit]
CC(C)C(=O)N1CCN(c2ccc(NC(=O)COc3ccccc3[N+](=O)[O-])cc2)CC1 28.2 µM [inhibitor, single point]
CCCn1c2ccccc2c2cnn(CC(=O)Nc3ccc(C)cc3Br)c(=O)c21 1 µM [inhibitor, partial curve, poor fit]
CC1(C)C2CCC1(CS(=O)(=O)NCc1ccc(C(F)(F)F)cc1)C(=O)C2 (centres undefined) 5.62 µM [inhibitor, partial curve, poor fit]
CCN1CCCC1Cn1cnc2c([nH]c3ccc(Cl)cc32)c1=O (centres undefined) 2.24 µM [inhibitor, partial curve, poor fit]
CCN(Cc1ccccc1)C(=O)c1cc(-c2ccc(OC)c(OC)c2)nc2ccccc12 28.2 µM [inhibitor, single point]
CCOC(=O)N=Nc1c2ccccc2c2nc3no[nH]c3nc12 2.82 µM [inhibitor, single point]
Cc1cc(C)c(Cn2c3ccccc3c3cnn(CC(=O)NCCN4CCOCC4)c(=O)c32)c(C)c1 15.8 µM [inhibitor, single point]
O=C(Nc1ccc2ccccc2c1)c1ccccc1O 14.1 µM [inhibitor, partial curve, poor fit]
CC(=O)c1ccc(NC(=O)Nc2ccc3c(c2)N(C)C(=O)CS3)cc1 28.2 µM [inhibitor, single point]
CCSc1nnc(NC(=O)NC2CCCCC2)s1 11.2 µM [inhibitor, single point]
Cc1ccc(NC2CCCN(C(=O)CSc3ccccn3)C2)cc1C (centres undefined) 10 µM [inhibitor, single point]
CC1CCN(c2ccccc2NC(=O)c2cc([N+](=O)[O-])ccc2N2CCOCC2)CC1 28.2 µM [inhibitor, single point]
Nc1ccc2cc3[nH]c4cc(N)ccc4c3nc2c1 28.2 µM [inhibitor, single point]
O=C(Nc1ccc2c(c1)OCO2)C1Cc2c(-c3ccc4c(c3)OCO4)ccnc2O1 (centres undefined) 5.62 µM [inhibitor, partial curve, poor fit]
O=C(CSc1ncnc2[nH]ncc12)Nc1cccc(Oc2ccccc2)c1 28.2 µM [inhibitor, single point]
Cc1cc(NC(=O)CN(C)CC(=O)Nc2ccc(Cl)cc2)no1 8.91 µM [inhibitor, partial curve, poor fit]
CC12CCC(=O)N1C(C(=O)N1CCN(c3cccc(Cl)c3)CC1)CS2 (centres undefined) 3.55 µM [inhibitor, partial curve]
O=C(NC(=S)NCC1COc2ccccc2O1)c1ccccc1 (centres undefined) 8.91 µM [inhibitor, partial curve, poor fit]
C/C(=N\NC(=O)c1cc(C)[nH]n1)c1ccc(-c2ccccc2)cc1 1.12 µM [inhibitor, full curve, poor fit]
CC1(C)C(C=C(Cl)Cl)C1C(=O)N(Cc1ccccc1Cl)C1CCS(=O)(=O)C1 (centres undefined) 11.2 µM [inhibitor, partial curve]
CSC(=Nc1ccccc1)Nc1ccccc1 22.4 µM [inhibitor, single point]
CCOC(=O)[C@H]1[C@H]2COc3ccc(C)cc3[C@@H]2N2C(=O)c3ccc(Cl)cc3NC(=O)[C@@]12C 31.6 µM [inhibitor, partial curve, poor fit]
O=C(/C=C/c1ccccc1)Nc1cccnc1Oc1ccccc1F 28.2 µM [inhibitor, single point]
CCOC(=O)c1ccc(NC(=O)CSc2nc(SC)ns2)cc1 28.2 µM [inhibitor, single point]
COc1ccc(S(=O)(=O)Nc2cccc(-c3ccc4nncn4n3)c2)cc1F 3.16 µM [inhibitor, full curve, poor fit]
CCSc1nc2sc3c(c2c(=O)n1-c1ccccc1)CCN(C)C3 2.82 µM [inhibitor, full curve]
CCn1c(SCc2cccc(C)c2)nnc1-c1ccccc1 28.2 µM [inhibitor, single point]
CCCCN1CN(S(=O)(=O)c2ccc(OC)cc2)c2nc3ccccc3nc21 28.2 µM [inhibitor, single point]
CCN1C(=S)SC(=O)C1=C1C=C(C)N(CCO)C(C)=C1 28.2 µM [inhibitor, single point]
Cc1nc2ccccc2c(=O)n1/N=C/c1c(O)ccc2ccccc12 28.2 µM [inhibitor, single point]
COc1ccc(Nc2nc(-c3ccccc3)nc3ccccc23)cc1 10 µM [inhibitor, partial curve, poor fit]
O=C1/C(=C/c2cccc(F)c2)CSc2sccc21 22.4 µM [inhibitor, single point]
COc1ccc(-c2ccc(CN3C(C)C(=O)N(Cc4cn(CC5CCCCC5)nn4)CCS3(=O)=O)cc2)cc1 (centres undefined) 28.2 µM [inhibitor, single point]
O=C(O)c1ccc2c(c1)N(Cc1ccc(F)cc1Cl)C(=O)c1ccccc1S2 28.2 µM [inhibitor, single point]
